# In the supplement of paper PMC4967469:
# pIC50: −log10 of the molar value. A lower IC50 marks a more sensitive line; a limit (>, <) means that the fit lies beyond the doses tested. AUC, from the same fit, is the share of area under the viability curve across the 256-fold dose range; the more sensitive the line, the further below 1. For some assays here: An inferred top dose is not printed in the source and was worked back from the curve model. For some assays here: An entry number marks a drug with two screens in the source, which often give different values.
# Experiments:
# Test in all cases: Viability of human cancer cell lines after 72 h of drug (GDSC screen)
# Epothilone B = compound: C/C(=C\c1csc(C)n1)[C@@H]1C[C@@H]2O[C@]2(C)CCC[C@H](C)[C@H](O)[C@@H](C)C(=O)C(C)(C)[C@@H](O)CC(=O)O1 [Epothilone B]; conditions: top dose 0.032 µM; top dose inferred
# Experimental: (§1)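 Human cancer cell lines in 384-well plates, medium with 10% serum, drug for 72 h over a 256-fold dose range (nine 2-fold or five 4-fold steps up to the top dose). Adherent lines were fixed and stained with the nucleic acid dye Syto60, suspension lines read with resazurin; signal relative to control wells, capped at 0 and 100%. One two-parameter sigmoid per drug and line, fitted in a mixed model over all curves with the slope shared within a line.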
# Pyrimethamine = compound: CCc1nc(N)nc(N)c1-c1ccc(Cl)cc1 [Pyrimethamine]; conditions: top dose 20 µM; top dose inferred
# Experimental: as §1
# PLX4720 = compound: CCCS(=O)(=O)Nc1ccc(F)c(C(=O)c2c[nH]c3ncc(Cl)cc23)c1F [PLX4720]; conditions: top dose 10 µM
# Experimental: as §1
# Y-39983 = compound: C[C@@H](N)c1ccc(C(=O)Nc2ccnc3[nH]ccc23)cc1 [Y-39983]; conditions: top dose 20 µM; top dose inferred
# Experimental: as §1
# PHA-793887 = compound: CC(C)CC(=O)Nc1n[nH]c2c1CN(C(=O)C1CCN(C)CC1)C2(C)C [PHA-793887]; conditions: top dose 10.24 µM
# Experimental: as §1
# AZD-0530 = compound: CN1CCN(CCOc2cc(OC3CCOCC3)c3c(Nc4c(Cl)ccc5c4OCO5)ncnc3c2)CC1 [AZD-0530]; conditions: top dose 2 µM
# Experimental: as §1
# TPCA-1 = compound: NC(=O)Nc1sc(-c2ccc(F)cc2)cc1C(N)=O [TPCA-1]; conditions: top dose 20 µM
# Experimental: as §1
# [1] = screen: GDSC drug entry 1371, top dose inferred
Cell Line,AUC (Epothilone B),pIC50 (Epothilone B),AUC (Pyrimethamine),pIC50 (Pyrimethamine),AUC (PLX4720; screen: GDSC drug entry 1036),pIC50 (PLX4720; screen: GDSC drug entry 1036),AUC (PLX4720; [1]),pIC50 (PLX4720; [1]),AUC (Y-39983),pIC50 (Y-39983),AUC (PHA-793887),pIC50 (PHA-793887),AUC (AZD-0530),pIC50 (AZD-0530),AUC (TPCA-1),pIC50 (TPCA-1)
"SNU-C1 (large intestine, suspension)",0.902,< 7.49,0.904,< 4.70,0.905,< 5.00,0.97,< 5.00,0.963,< 4.70,0.97,< 4.99,0.958,< 5.70,0.923,< 4.70
"SR (lymphoid neoplasm, suspension)",0.508,8.68,0.882,4.75,–,–,0.919,< 5.00,0.218,6.68,0.366,6.55,0.962,< 5.70,0.456,6.02
"SU-DHL-4 (B-cell lymphoma, suspension)",0.94,7.55,0.785,5.21,0.994,< 5.00,0.997,< 5.00,0.927,4.80,0.831,5.38,0.925,5.81,0.847,5.05
"SU-DHL-6 (B-cell lymphoma, suspension)",0.511,8.67,0.755,5.28,0.976,< 5.00,0.995,< 5.00,0.876,4.94,0.188,6.97,0.859,5.99,0.54,5.80
"SU-DHL-8 (B-cell lymphoma, suspension)",0.709,8.13,0.801,5.05,0.984,< 5.00,0.965,< 5.00,0.562,5.74,0.621,5.87,0.98,< 5.70,0.607,5.62
"SU-DHL-16 (B-cell lymphoma, suspension)",0.435,8.86,0.932,4.77,0.991,< 5.00,0.992,< 5.00,0.616,5.62,0.068,7.33,0.938,5.74,0.32,6.34
"SUP-B15 (lymphoblastic leukaemia, suspension)",0.478,8.76,0.892,< 4.70,0.968,< 5.00,–,–,0.915,< 4.70,0.667,5.74,0.77,6.14,0.683,5.40
"SUP-HD1 (Hodgkin lymphoma, suspension)",0.767,7.94,0.907,< 4.70,0.971,< 5.00,0.982,< 5.00,0.82,4.97,0.468,6.28,0.982,< 5.70,0.564,5.73
"SUP-M2 (anaplastic large cell lymphoma, suspension)",0.685,8.24,0.936,< 4.70,0.987,< 5.00,0.99,< 5.00,0.846,5.01,0.178,7.01,0.994,< 5.70,0.704,5.40
"SW684 (fibrosarcoma, adherent)",0.982,< 7.49,0.953,< 4.70,0.983,< 5.00,0.98,< 5.00,0.983,< 4.70,0.974,< 4.99,0.925,< 5.70,0.983,< 4.70
"SW872 (soft tissue, adherent)",0.331,9.15,0.916,< 4.70,–,–,0.827,5.27,0.987,< 4.70,0.974,< 4.99,0.863,5.84,0.946,< 4.70
"SW962 (urogenital system, adherent)",0.424,8.93,0.942,< 4.70,0.98,< 5.00,0.975,< 5.00,0.924,< 4.70,0.914,< 4.99,0.877,< 5.70,0.847,< 4.70
"TC-71 (Ewing sarcoma, adherent)",0.908,7.51,0.97,< 4.70,0.955,< 5.00,0.974,< 5.00,0.919,< 4.70,0.679,5.74,0.982,< 5.70,0.561,5.75
"TE-1 (oesophagus, adherent)",0.516,8.65,0.776,4.99,0.968,< 5.00,0.95,< 5.00,0.974,< 4.70,0.982,< 4.99,0.81,5.85,0.967,< 4.70
"TE-5 (oesophagus, adherent)",0.551,8.55,0.892,< 4.70,0.98,< 5.00,0.981,< 5.00,0.969,< 4.70,0.887,< 4.99,0.963,< 5.70,0.95,< 4.70
"TE-6 (oesophagus, adherent)",0.769,7.85,0.907,< 4.70,0.986,< 5.00,0.984,< 5.00,0.986,< 4.70,0.954,< 4.99,0.921,< 5.70,0.936,< 4.70
"TE-8 (oesophagus, adherent)",0.181,9.70,0.968,< 4.70,0.948,< 5.00,0.984,< 5.00,0.929,< 4.70,0.98,< 4.99,0.791,6.02,0.824,4.89
